Assay results taken from publication PMC10518494.
These are yes or no findings as the source states them, for the method shown. In cells and extracts the contact can be indirect. Some binding calls cover weakened binding; strength is not graded here. For part of these data: Sequences can lack the tags named with a protein. Values belong to the binder of their own block, whether it stands above or below them.

Tests used:
Flag-Rnd3 = target: T1, Flag-Rnd3 (UniProt P61588); assay: co-IP; lysates of primary aortic ECs transfected with tagged Rnd3 and tagged TRAF6 constructs; IP with anti-Flag or anti-Myc antibody, immunoblot for the tags; 500 ug lysate protein, 5 ug IP antibody, 12 h at 4°C, Protein A/G magnetic beads
T1 sequence: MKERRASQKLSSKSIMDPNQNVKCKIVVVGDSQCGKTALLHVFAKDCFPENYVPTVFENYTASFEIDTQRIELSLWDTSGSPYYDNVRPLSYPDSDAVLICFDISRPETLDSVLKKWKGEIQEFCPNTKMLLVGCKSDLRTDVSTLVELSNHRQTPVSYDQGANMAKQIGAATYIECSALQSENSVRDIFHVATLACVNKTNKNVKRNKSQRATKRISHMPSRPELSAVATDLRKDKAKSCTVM

[1] = target: T2, tumor necrosis factor receptor-associated factor 6 (endogenous, mouse aortic endothelial cells) (mouse (endogenous in primary aortic ECs)) (UniProt P70196); assay: co-IP; IP with TRAF6 antibody from lysates of aortic ECs isolated from WT and Apoe KO mice, blot for Rnd3; 500 ug lysate protein, 5 ug IP antibody, 12 h at 4°C, Protein A/G magnetic beads
T2 sequence: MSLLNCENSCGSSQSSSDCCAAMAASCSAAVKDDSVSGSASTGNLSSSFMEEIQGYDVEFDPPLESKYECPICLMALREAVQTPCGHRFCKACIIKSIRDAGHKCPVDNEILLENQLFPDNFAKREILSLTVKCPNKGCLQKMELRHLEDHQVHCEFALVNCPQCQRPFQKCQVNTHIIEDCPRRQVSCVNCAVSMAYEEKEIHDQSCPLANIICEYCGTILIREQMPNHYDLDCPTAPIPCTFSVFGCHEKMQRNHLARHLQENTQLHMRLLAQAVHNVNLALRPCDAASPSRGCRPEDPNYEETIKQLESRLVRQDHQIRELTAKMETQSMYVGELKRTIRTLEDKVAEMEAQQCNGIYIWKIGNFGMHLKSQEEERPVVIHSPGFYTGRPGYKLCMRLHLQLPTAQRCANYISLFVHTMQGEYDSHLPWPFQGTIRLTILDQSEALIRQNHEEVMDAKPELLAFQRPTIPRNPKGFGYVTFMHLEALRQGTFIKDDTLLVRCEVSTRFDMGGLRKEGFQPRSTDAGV

[2] = target: T3, Myc-TRAF6 truncation mutant (349-522) (UniProt Q9Y4K3); assay: co-IP; lysates of primary aortic ECs transfected with tagged Rnd3 and tagged TRAF6 constructs; IP with anti-Flag or anti-Myc antibody, immunoblot for the tags; 500 ug lysate protein, 5 ug IP antibody, 12 h at 4°C, Protein A/G magnetic beads
T3 sequence: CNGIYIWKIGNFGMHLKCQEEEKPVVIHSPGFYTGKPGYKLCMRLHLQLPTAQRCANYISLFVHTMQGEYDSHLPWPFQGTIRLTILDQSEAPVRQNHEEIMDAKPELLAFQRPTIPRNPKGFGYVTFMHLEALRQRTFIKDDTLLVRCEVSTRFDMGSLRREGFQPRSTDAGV

[3] = target: T4, Myc-TRAF6 truncation mutant (110-522) (UniProt Q9Y4K3); assay: as above
T4 sequence: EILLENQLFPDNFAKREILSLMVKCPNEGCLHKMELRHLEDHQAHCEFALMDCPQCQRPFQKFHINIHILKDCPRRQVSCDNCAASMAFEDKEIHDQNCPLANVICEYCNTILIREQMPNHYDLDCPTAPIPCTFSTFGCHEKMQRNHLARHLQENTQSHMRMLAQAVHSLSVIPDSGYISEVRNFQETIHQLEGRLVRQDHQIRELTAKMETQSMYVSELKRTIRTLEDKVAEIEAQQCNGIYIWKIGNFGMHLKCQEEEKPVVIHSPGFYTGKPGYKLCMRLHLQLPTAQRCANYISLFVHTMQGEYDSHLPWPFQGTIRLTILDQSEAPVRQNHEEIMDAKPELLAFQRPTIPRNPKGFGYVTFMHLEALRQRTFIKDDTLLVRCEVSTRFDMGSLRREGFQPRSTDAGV

[4] = target: T5, Myc-TRAF6 truncation mutant (260-522) (UniProt Q9Y4K3); assay: as above
T5 sequence: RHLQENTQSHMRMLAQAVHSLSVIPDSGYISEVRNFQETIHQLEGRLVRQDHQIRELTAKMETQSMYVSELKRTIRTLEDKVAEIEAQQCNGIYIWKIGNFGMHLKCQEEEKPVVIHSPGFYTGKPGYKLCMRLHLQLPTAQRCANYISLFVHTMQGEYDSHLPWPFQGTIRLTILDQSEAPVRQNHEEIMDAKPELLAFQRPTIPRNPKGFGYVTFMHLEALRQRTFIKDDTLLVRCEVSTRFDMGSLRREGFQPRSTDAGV

binding (Flag-Rnd3): no binding
B1: Ha-TRAF6 65-88 amino acid deletion mutant (protein, UniProt Q9Y4K3)
chain: MSLLNCENSCGSSQSESDCCVAMASSCSAVTKDDSVGGTASTGNLSSSFMEEIQGYDVEFDPPLFCKACIIKSIRDAGHKCPVDNEILLENQLFPDNFAKREILSLMVKCPNEGCLHKMELRHLEDHQAHCEFALMDCPQCQRPFQKFHINIHILKDCPRRQVSCDNCAASMAFEDKEIHDQNCPLANVICEYCNTILIREQMPNHYDLDCPTAPIPCTFSTFGCHEKMQRNHLARHLQENTQSHMRMLAQAVHSLSVIPDSGYISEVRNFQETIHQLEGRLVRQDHQIRELTAKMETQSMYVSELKRTIRTLEDKVAEIEAQQCNGIYIWKIGNFGMHLKCQEEEKPVVIHSPGFYTGKPGYKLCMRLHLQLPTAQRCANYISLFVHTMQGEYDSHLPWPFQGTIRLTILDQSEAPVRQNHEEIMDAKPELLAFQRPTIPRNPKGFGYVTFMHLEALRQRTFIKDDTLLVRCEVSTRFDMGSLRREGFQPRSTDAGV

binding [2]: no binding | binding [3]: no binding | binding [4]: no binding
B3: Flag-Rnd3 (protein, UniProt P61588 1-244)
chain: T1 sequence

The remaining lines, values behind:

B2: Rnd3 (endogenous, mouse aortic endothelial cells) (protein, UniProt P61588 1-244)
chain: T1 sequence
binding [1]: binds

B4: Myc-TRAF6 (1-110) (domain or fragment, UniProt Q9Y4K3 1-110)
chain: MSLLNCENSCGSSQSESDCCVAMASSCSAVTKDDSVGGTASTGNLSSSFMEEIQGYDVEFDPPLESKYECPICLMALREAVQTPCGHRFCKACIIKSIRDAGHKCPVDNE
binding (Flag-Rnd3): binds
